Laboratory results: the supplement of paper PMC3334620
Whole data set: some 33,000 sequences, median “E-score (-0.5 to 0.5)” near -0.035, cut for the highest 2% near 0.35. Some of the results follow.

target: T1, Pdr3 (UniProt P33200); experiment: PBM E-score (8-mer binding enrichment) (E-score (-0.5 to 0.5)); higher = stronger / more preferred TF binding; most listed sequences are background and not binding sites; conditions: protein concentration: 200 nM; construct: GST-full length
T1 sequence: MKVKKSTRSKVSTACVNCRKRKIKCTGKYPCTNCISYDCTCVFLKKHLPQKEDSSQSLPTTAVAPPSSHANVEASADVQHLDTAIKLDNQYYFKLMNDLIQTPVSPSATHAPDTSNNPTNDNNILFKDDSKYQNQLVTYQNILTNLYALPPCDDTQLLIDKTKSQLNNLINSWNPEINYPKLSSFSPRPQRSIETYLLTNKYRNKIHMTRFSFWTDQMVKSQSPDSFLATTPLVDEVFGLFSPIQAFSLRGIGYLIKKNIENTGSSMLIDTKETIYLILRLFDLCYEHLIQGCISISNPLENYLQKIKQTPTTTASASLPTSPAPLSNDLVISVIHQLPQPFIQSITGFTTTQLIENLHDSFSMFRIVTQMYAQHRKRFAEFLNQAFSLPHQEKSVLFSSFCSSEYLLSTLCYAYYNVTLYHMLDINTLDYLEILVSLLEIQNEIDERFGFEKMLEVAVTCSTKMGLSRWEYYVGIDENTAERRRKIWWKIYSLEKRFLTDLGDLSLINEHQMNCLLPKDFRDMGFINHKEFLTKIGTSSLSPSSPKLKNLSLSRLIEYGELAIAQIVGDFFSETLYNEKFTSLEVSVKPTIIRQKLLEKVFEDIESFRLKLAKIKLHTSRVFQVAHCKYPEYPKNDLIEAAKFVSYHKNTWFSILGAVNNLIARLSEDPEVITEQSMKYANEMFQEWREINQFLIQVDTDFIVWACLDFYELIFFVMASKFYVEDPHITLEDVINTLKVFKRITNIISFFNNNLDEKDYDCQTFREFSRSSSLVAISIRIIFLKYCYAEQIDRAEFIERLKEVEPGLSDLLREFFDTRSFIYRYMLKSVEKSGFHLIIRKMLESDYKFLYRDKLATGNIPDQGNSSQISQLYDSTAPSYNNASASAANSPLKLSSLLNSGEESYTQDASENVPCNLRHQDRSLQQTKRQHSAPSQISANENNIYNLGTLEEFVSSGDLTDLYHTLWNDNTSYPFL
In short: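 Universal all-10-mer Agilent arrays, fresh or stripped once, were converted to double-stranded form by primer extension. GST-tagged yeast transcription factors from PURExpress in vitro transcription/translation, full-length or DNA-binding domain only, were applied at about 100-200 nM and detected with fluorescent anti-GST. After masliner normalisation, the Universal PBM Analysis Suite scored each ungapped eight-base word together with its reverse complement by E-score.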

Compared with CGGAGCGA, GGAGTAAA is lower in “PBM E-score” value: 0.378 for the first, 0.114 for the second.

Compared with ATCGCGCC, AACAGCTT is lower in “PBM E-score” value: 0.203 for the first, 0.048 for the second.

Compared with ATAAGCTG, CACCTGAC is lower in “PBM E-score” value: -0.144 for the first, -0.221 for the second.

First: ATTCGGGG
Second: CGGCTCCC
The “PBM E-score” value of the first is higher: 0.337 for the first, 0.131 for the second.

Going from CGCGCTTC to CAAGTGGC, the “PBM E-score” value falls from 0.139 to -0.0242.

Compared with GCCAAGAA, TCTCAAAA is higher in “PBM E-score” value: -0.0394 for the first, -0.0162 for the second.

First: TCGCGACA
Second: CCAGGGGA
The “PBM E-score” value of the first is higher: 0.12 for the first, 0.00098 for the second.

First: CTTACCGA
Second: AAGCATGA
The “PBM E-score” value of the first is higher: -0.0259 for the first, -0.0846 for the second.

Going from AATGATGA to CTGGGATA, the “PBM E-score” value falls from 0.112 to 0.0272.

First: AGAATTTA
Second: TCGTTTAA
The “PBM E-score” value of the first is higher: -0.053 for the first, -0.231 for the second.

Compared with TCGCAAAA, GGCGATAC is higher in “PBM E-score” value: -0.0413 for the first, -0.018 for the second.

First: TCGCTCAA
Second: TAAGAACA
The “PBM E-score” value of the first is lower: 0.041 for the first, 0.122 for the second.

Going from ACACAGTG to GTTCTTTA, the “PBM E-score” value falls from 0.0496 to 0.0362.

Compared with GATCAACC, ATTCATGC is lower in “PBM E-score” value: 0.138 for the first, 0.0716 for the second.

First: GTTCGCTA
Second: ACCCTGAA
The “PBM E-score” value of the first is higher: -0.0819 for the first, -0.18 for the second.

Going from AGCAACGA to GATACGCA, the “PBM E-score” value falls from -0.105 to -0.137.

Compared with GGGGCACA, GGCAAGAA is higher in “PBM E-score” value: -0.0775 for the first, -0.0748 for the second.

Compared with GAGCAGGA, AGCCACCA is lower in “PBM E-score” value: -0.0326 for the first, -0.222 for the second.

Going from ATATATAG to TCTAATAA, the “PBM E-score” value falls from 0.121 to -0.272.

Going from ACGTATGC to ATTGAGGA, the “PBM E-score” value rises from -0.121 to -0.0437.

First: AAGGGTGG
Second: ACTGGAGG
The “PBM E-score” value of the first is lower: -0.171 for the first, -0.0195 for the second.

Going from GCTACCAA to GCCGCGCC, the “PBM E-score” value rises from -0.138 to 0.098.

First: AGATAGTG
Second: CCTAGAAG
The “PBM E-score” value of the first is higher: -0.116 for the first, -0.146 for the second.

Compared with CTGAATTC, ACTCTGGA is higher in “PBM E-score” value: -0.136 for the first, 0.00059 for the second.

First: AGGCTTCA
Second: ATGTTCCA
The “PBM E-score” value of the first is lower: -0.157 for the first, 0.0325 for the second.

Compared with ATAGGGAC, GCGTTGCA is higher in “PBM E-score” value: -0.0107 for the first, 0.124 for the second.

Going from AAAGCCTG to GCCTCGAA, the “PBM E-score” value rises from -0.27 to -0.119.

First: TAGGCCTA
Second: ACGGATTA
The “PBM E-score” value of the first is lower: -0.224 for the first, 0.217 for the second.

Going from AATGTGAA to ACTGCGCT, the “PBM E-score” value falls from -0.116 to -0.189.

Compared with TCGTACCA, CTAAACCA is lower in “PBM E-score” value: -0.0559 for the first, -0.192 for the second.

Compared with ATATCATC, CCACCACG is lower in “PBM E-score” value: 0.0728 for the first, -0.0173 for the second.

Going from GCCAAGCC to AACCTCAC, the “PBM E-score” value falls from -0.0348 to -0.158.

Going from CCAGTCTC to CGCGCATC, the “PBM E-score” value rises from -0.16 to 0.141.

Compared with ATCTGGGA, CAAGGGCG is higher in “PBM E-score” value: -0.26 for the first, -0.212 for the second.

First: CTCCTTCC
Second: ACGCAGAT
The “PBM E-score” value of the first is lower: 1e-05 for the first, 0.0761 for the second.

Going from ATGAATAA to GACGGACC, the “PBM E-score” value rises from -0.163 to 0.33.

Compared with AGGGAACT, GCTATGGA is lower in “PBM E-score” value: 0.0568 for the first, -0.0537 for the second.

Going from AGCTAACT to ACAGTATC, the “PBM E-score” value falls from -0.0938 to -0.21.

Compared with CAAGATTC, GAATCAGA is lower in “PBM E-score” value: 0.142 for the first, 0.117 for the second.

First: AGATAGAC
Second: ATATATGC
The “PBM E-score” value of the first is lower: -0.109 for the first, 0.11 for the second.

Going from ACGCTTGG to CTGCTTGA, the “PBM E-score” value falls from -0.205 to -0.259.

First: GCGTCGGA
Second: ATAAAAGA
The “PBM E-score” value of the first is higher: 0.314 for the first, -0.182 for the second.

Going from GCTCTAAA to CCTATTCC, the “PBM E-score” value rises from -0.226 to 0.107.

Going from AGATCGGG to TCCTGAAA, the “PBM E-score” value falls from 0.0992 to -0.0194.

First: AGGTTATC
Second: CCGTCCAC
The “PBM E-score” value of the first is lower: -0.182 for the first, 0.233 for the second.

Compared with AGACTGTA, ATCACGTC is higher in “PBM E-score” value: -0.194 for the first, -0.0604 for the second.

First: AATGAAAA
Second: AATGGTGG
The “PBM E-score” value of the first is higher: 0.0572 for the first, -0.0586 for the second.

Going from ACTGTCGG to CTACGATA, the “PBM E-score” value falls from 0.0299 to -0.031.

Compared with GTGGCGCA, GGGTGACA is higher in “PBM E-score” value: -0.0588 for the first, 0.173 for the second.

Going from AGTCGGAA to TCCAGCAA, the “PBM E-score” value falls from 0.414 to -0.333.

First: CGGTTTAG
Second: AGCAGAAT
The “PBM E-score” value of the first is lower: 0.0658 for the first, 0.0669 for the second.

Going from ACAAAGCC to AGGTTCGA, the “PBM E-score” value falls from 0.0294 to -0.0184.

Going from AATGATTG to TAAACACA, the “PBM E-score” value falls from 0.0739 to -0.146.

First: AGGATCCG
Second: ATGTCAAC
The “PBM E-score” value of the first is higher: 0.301 for the first, -0.11 for the second.

Compared with CTCCATCA, GGTGGCAC is lower in “PBM E-score” value: 0.126 for the first, 0.0222 for the second.

First: CTCCTGTC
Second: ATAAGGAG
The “PBM E-score” value of the first is lower: -0.192 for the first, -0.0921 for the second.

First: GCCGTTAC
Second: CAACAAGG
The “PBM E-score” value of the first is higher: 0.23 for the first, -0.0235 for the second.

Compared with CTGTGCAC, AAAAATGA is higher in “PBM E-score” value: -0.197 for the first, -0.0876 for the second.

Going from AATGGGCA to CGAAACCG, the “PBM E-score” value rises from 0.0304 to 0.27.

Compared with CAACTATC, GCCACAGA is lower in “PBM E-score” value: 0.0324 for the first, -0.163 for the second.

Compared with GCAACACC, ACGCGCCA is lower in “PBM E-score” value: 0.0609 for the first, -0.0118 for the second.

Going from AGTCAAGC to CAAAGGAC, the “PBM E-score” value falls from -0.0903 to -0.179.

First: ATTTTTAA
Second: CGATGGTA
The “PBM E-score” value of the first is higher: 0.144 for the first, -0.0193 for the second.

First: TCGCGAGA
Second: AGCTACGG
The “PBM E-score” value of the first is higher: 0.144 for the first, 0.0905 for the second.

Going from CCACCCAA to AATAACGG, the “PBM E-score” value rises from -0.0493 to 0.275.

Compared with GACGATGC, AATCCGCA is higher in “PBM E-score” value: -0.093 for the first, 0.246 for the second.

Going from AAGGTATC to CTATGGTC, the “PBM E-score” value falls from -0.0275 to -0.0378.

First: CTGGCGTA
Second: AATGTGCT
The “PBM E-score” value of the first is lower: -0.246 for the first, 0.101 for the second.

Compared with TCCGGTCA, ACGCTTTC is lower in “PBM E-score” value: 0.32 for the first, -0.094 for the second.

First: CTGGCATC
Second: AGGGCCTA
The “PBM E-score” value of the first is lower: -0.298 for the first, -0.129 for the second.

First: GAAACTAA
Second: GCTATGAA
The “PBM E-score” value of the first is lower: -0.051 for the first, -0.0316 for the second.

First: AACACAAT
Second: ATTGTACG
The “PBM E-score” value of the first is higher: -0.139 for the first, -0.227 for the second.

First: GTCCAGTA
Second: CTGCCCCA
The “PBM E-score” value of the first is lower: -0.0926 for the first, -0.045 for the second.

First: ATCGGGTG
Second: ATACACGC
The “PBM E-score” value of the first is higher: 0.266 for the first, 0.00278 for the second.

Going from TCCACTAA to ACTCCTAA, the “PBM E-score” value falls from -0.0222 to -0.163.

Going from ATAACATA to ACTGCGTA, the “PBM E-score” value falls from 0.0584 to -0.234.

First: CGCCCGAG
Second: CTGGGTAA
The “PBM E-score” value of the first is higher: 0.243 for the first, -0.0947 for the second.

Compared with AAGGGCCA, CGCGCAAA is higher in “PBM E-score” value: -0.218 for the first, 0.175 for the second.

Compared with TGGCTACA, CAAACAAA is higher in “PBM E-score” value: -0.214 for the first, -0.144 for the second.

Going from AAGGGAGA to CACCTTGC, the “PBM E-score” value rises from -0.111 to -0.0258.

Compared with GCTGCATA, GATCATGA is lower in “PBM E-score” value: 0.0166 for the first, -0.0423 for the second.

Compared with CTCATCAC, AGCTTTCA is lower in “PBM E-score” value: -0.191 for the first, -0.204 for the second.

Compared with ACCCCGAT, AATGGCCA is lower in “PBM E-score” value: 0.251 for the first, -0.0134 for the second.

Compared with AGCGTCGA, CAAACAGC is lower in “PBM E-score” value: -0.0457 for the first, -0.0858 for the second.

Going from GGTTGGAC to CGACGGTC, the “PBM E-score” value rises from -0.0822 to 0.0133.

Compared with AAGTGCTA, ACTTTGTC is higher in “PBM E-score” value: -0.324 for the first, -0.0363 for the second.
